According to the supplement of paper PMC4604168 (melanoma cell lines):
The list shows a part of the results. Repeats are few or missing, and single values can be far off.

Columns and labels:
Assay in all cases: cell count relative to DMSO control; melanoma cells; higher = more viable cells
Conditions in all cases: library dose: standard library concentration; 72 h
SkMel28 = test system: SkMel28
SkMel2 = test system: SkMel2
SkMel30 = test system: SkMel30
SkMel5 = test system: SkMel5
UACC257 = test system: UACC257
UACC62 = test system: UACC62
WM115 = test system: WM115
WM1716 = test system: WM1716
WM1745 = test system: WM1745
WM3526 = test system: WM3526
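Note: cells treated in 1,536-well plates, then fixed and DAPI-stained, with nuclei counted from automated high-throughput microscope images.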

| Compound | cell count (SkMel28) [%] | cell count (SkMel2) [%] | cell count (SkMel30) [%] | cell count (SkMel5) [%] | cell count (UACC257) [%] | cell count (UACC62) [%] | cell count (WM115) [%] | cell count (WM1716) [%] | cell count (WM1745) [%] | cell count (WM3526) [%] |
| --- | --- | --- | --- | --- | --- | --- | --- | --- | --- | --- |
| CCN(CC)CCNC(=O)c1c(C)[nH]c(/C=C2\C(=O)Nc3ccc(F)cc32)c1C [sunitinib] + CN1CCN(c2ccc3nc(-c4c(N)c5c(F)cccc5[nH]c4=O)[nH]c3c2)CC1 [Dovitinib] (first compound 2 µM, partner dose 0.5 µM) | 53.8 | 43 | 57.9 | 48.3 | 89.8 | 36.7 | 59.1 | 78.5 | 32.8 | 50.7 |
| Cn1cnc2c(F)c(Nc3ccc(Br)cc3Cl)c(C(=O)NOCCO)cc21 [selumetinib] + CC(=O)O[C@@]12CO[C@@H]1C[C@H](O)[C@@]1(C)C(=O)[C@H](O)C3=C(C)[C@@H](OC(=O)[C@H](O)[C@@H](NC(=O)OC(C)(C)C)c4ccccc4)C[C@@](O)([C@@H](OC(=O)c4ccccc4)[C@H]21)C3(C)C [Docetaxel] (first compound 0.075 µM, partner dose 0.0005 µM) | 17.3 | 15.9 | 36.1 | 36.6 | 73.8 | 48 | 40.7 | 41 | 46.8 | 29.3 |
| CCN(CC)CCNC(=O)c1c(C)[nH]c(/C=C2\C(=O)Nc3ccc(F)cc32)c1C [sunitinib] + C=C(c1ccc(C(=O)O)cc1)c1cc2c(cc1C)C(C)(C)CCC2(C)C [Bexarotene] (first compound 2 µM, partner dose 10 µM) | 58.9 | 85.6 | 53.2 | 62.1 | 103 | 66.2 | 106 | 98.6 | 49.9 | 66 |
| COc1cc([C@@H]2c3cc4c(cc3[C@@H](O[C@@H]3O[C@@H]5CO[C@@H](C)O[C@H]5[C@H](O)[C@H]3O)[C@H]3COC(=O)[C@H]23)OCO4)cc(OC)c1O [etoposide] + CNC(=O)c1cc(Oc2ccc(NC(=O)Nc3ccc(Cl)c(C(F)(F)F)c3)cc2)ccn1 [sorafenib] (first compound 0.1 µM, partner dose 2 µM) | 108 | 77.9 | 112 | 90.5 | 89.8 | 82.9 | 99 | 76.6 | 85.1 | 104 |
| Cn1cnc2c(F)c(Nc3ccc(Br)cc3Cl)c(C(=O)NOCCO)cc21 [selumetinib] + O=C(CCCCCCC(=O)Nc1ccccc1)NO [vorinostat] (first compound 0.075 µM, partner dose 0.4 µM) | 39.1 | 23.2 | 72.3 | 53.4 | 77.6 | 61.2 | 60.1 | 78.9 | 67.8 | 50 |
| Cn1cnc2c(F)c(Nc3ccc(Br)cc3Cl)c(C(=O)NOCCO)cc21 [selumetinib] + C#Cc1cccc(Nc2ncnc3cc(OCCOC)c(OCCOC)cc23)c1 [erlotinib] (first compound 0.075 µM, partner dose 4 µM) | 55.7 | 33.1 | 31.5 | 56 | 102 | 43 | 56.9 | 69 | 46.3 | 47.1 |
| CCN(CC)CCNC(=O)c1c(C)[nH]c(/C=C2\C(=O)Nc3ccc(F)cc32)c1C [sunitinib] + CC(C)C[C@H](NC(=O)[C@H](Cc1ccccc1)NC(=O)c1cnccn1)B(O)O [Bortezomib] (first compound 2 µM, partner dose 0.005 µM) | 33.1 | 47.8 | 26.3 | 21.7 | 75.2 | 57.3 | 37.7 | 19.5 | 26.3 | 31.3 |
| COc1cc([C@@H]2c3cc4c(cc3[C@@H](O[C@@H]3O[C@@H]5CO[C@@H](C)O[C@H]5[C@H](O)[C@H]3O)[C@H]3COC(=O)[C@H]23)OCO4)cc(OC)c1O [etoposide] + Cn1c(=O)n(-c2ccc(C(C)(C)C#N)cc2)c2c3cc(-c4cnc5ccccc5c4)ccc3ncc21 [NVP-BEZ235] (first compound 0.1 µM, partner dose 0.02 µM) | 41.4 | 49 | 66.3 | 69.9 | 94.1 | 69 | 66.2 | 64.4 | 73.3 | 72.9 |
| Cn1cnc2c(F)c(Nc3ccc(Br)cc3Cl)c(C(=O)NOCCO)cc21 [selumetinib] + NCC(=O)Nc1ccc(-n2nc(C(F)(F)F)cc2-c2ccc3c(ccc4ccccc43)c2)cc1 [OSU03012] (first compound 0.075 µM, partner dose 5 µM) | 30.7 | 36.5 | 42.5 | 67.9 | 82.8 | 60.4 | 60.3 | 69.8 | 112 | 51.7 |
| CCN(CC)CCNC(=O)c1c(C)[nH]c(/C=C2\C(=O)Nc3ccc(F)cc32)c1C [sunitinib] + CS(=O)(=O)CCNCc1ccc(-c2ccc3ncnc(Nc4ccc(OCc5cccc(F)c5)c(Cl)c4)c3c2)o1 [lapatinib] (first compound 2 µM, partner dose 4 µM) | 36.7 | 57.5 | 52.4 | 21.2 | 91.3 | 28.1 | 68.6 | 96.9 | 39.6 | 51.9 |
